{
  "source": "PubChem BioAssay AID624417",
  "about": "(National Center for Advancing Translational Sciences (NCATS), 2012)",
  "note": "In all, about 410,000 compounds went through this assay and about 6,400 (1.6%) were called active. Inconclusive means that the source gave no clear call. Such entries were picked first, then a sample of the others. Calls follow the shape of the dose curve; as a rule, active = well fitted inhibition curve with a large enough effect; inconclusive = small, poorly fitted or top-dose-only effect; inactive = no such curve, though single readings can be large or run the other way. Potencies of inconclusive entries are left out as doubtful fits. Potency is read from the fitted curve at half-maximal effect; tags tell the direction and shape of the fitted curve.",
  "data": [
    {"biological_target": "Glucagon-like peptide 1 receptor (Homo sapiens) (UniProt P43220)", "sequence (P43220 whole entry, looked up)": "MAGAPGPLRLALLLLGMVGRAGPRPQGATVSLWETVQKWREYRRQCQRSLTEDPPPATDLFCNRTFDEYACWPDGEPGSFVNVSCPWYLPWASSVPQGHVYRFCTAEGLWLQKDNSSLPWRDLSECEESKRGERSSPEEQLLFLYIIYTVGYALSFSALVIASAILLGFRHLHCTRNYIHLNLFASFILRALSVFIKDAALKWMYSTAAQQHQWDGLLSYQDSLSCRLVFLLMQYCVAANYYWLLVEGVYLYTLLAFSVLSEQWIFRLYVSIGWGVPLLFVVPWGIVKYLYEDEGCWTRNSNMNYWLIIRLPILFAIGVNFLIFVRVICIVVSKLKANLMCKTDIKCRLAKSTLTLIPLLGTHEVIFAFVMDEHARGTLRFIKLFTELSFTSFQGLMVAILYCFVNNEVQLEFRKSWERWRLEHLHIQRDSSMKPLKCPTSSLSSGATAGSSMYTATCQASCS", "experiment": "qHTS of GLP-1 Receptor Inverse Agonists (Inhibition Mode); also: nearly all actives have a fitted effect of over 55% in size", "conditions": "HEK293 GLP-1R CRE-luciferase, luminescence, 24 h; Potency: GLP-1R form is constitutively active unless noted; series mostly up to 38.3 µM", "outline": "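HEK293 cells stably co-expressing a cAMP-responsive luciferase reporter and constitutively active GLP-1R were seeded, incubated 12 h, then exposed to compounds for 24 h at 37 C. Luminescence was read 12 min after detection reagent; inverse agonists lower signal.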", "values": [
      {"smiles": "CCCCCCCCCCCCn1ccc(=N)cc1", "Potency": "inconclusive [inhibitor, partial curve, poor fit]"},
      {"smiles": "CN1C(=O)C(=Cc2c(OCc3cnc(Cl)s3)ccc3ccccc23)C(=O)N(C)C1=O", "Potency": "inconclusive [inhibitor, single point]"},
      {"smiles": "CSc1ccc(C(=O)C2CCCN(CCCn3cccn3)C2)cc1", "note": "(stereo unspecified)", "Potency": "inconclusive [inhibitor, partial curve, poor fit]"},
      {"smiles": "COc1ccccc1N1CCN(Cc2ccc(Br)cc2)CC1", "Potency": "active: 10 µM [setting not given]"},
      {"smiles": "CCOC(=O)[C@]12Cc3ccc(C)cc3[C@H]1N(C1CCCCC1)C(=O)c1ccccc12", "Potency": "inconclusive [inhibitor, partial curve, poor fit]"},
      {"smiles": "CN1CCN(C(=O)COc2ccc(Oc3ccccc3)cc2)CC1", "Potency": "inconclusive [inhibitor, single point]"},
      {"smiles": "COC(=O)C1(C(=O)OC)C[C@H](c2ccccc2)N(Cc2ccccc2OC)[C@@H]1c1ccccc1", "Potency": "inconclusive [inhibitor, partial curve, poor fit]"},
      {"smiles": "COC(=O)C1=C(c2ccc(F)cc2OCc2ccccc2)C[C@@H]2CC[C@H]1N2C(=O)NCc1cccc(F)c1", "Potency": "inconclusive [inhibitor, partial curve, poor fit]"},
      {"smiles": "COC(=O)C1=C(c2ccccc2OCc2ccccc2)C[C@@H]2CC[C@H]1N2C(=O)NCCc1ccc(F)cc1", "Potency": "active: 22.4 µM [setting not given]"},
      {"smiles": "CCc1ccc(-n2nc(C)c3c2NC(=O)CSC3c2ccccc2C)cc1", "note": "(stereo unspecified)", "Potency": "inconclusive [inhibitor, partial curve, poor fit]"},
      {"smiles": "Cc1nn(Cc2ccccc2)c(Cl)c1C(=O)Nc1ccc(OC(F)(F)F)cc1", "Potency": "inconclusive [inhibitor, single point]"},
      {"smiles": "Oc1ccc2c3c1O[C@H]1c4oc5ccccc5c4C[C@@]4(O)[C@@H](C2)N(CC2CC2)CC[C@]314", "Potency": "inconclusive [inhibitor, single point]"},
      {"smiles": "O=S(=O)(c1ccc(Cl)cc1)c1ccc(Cl)cc1", "Potency": "inactive"},
      {"smiles": "CCCCn1c(O)c(C(CC)=Nc2ccc(OC)cc2OC)c(=O)[nH]c1=O", "Potency": "inconclusive [inhibitor, single point]"},
      {"smiles": "O=c1c2ccccc2c(C=Nc2ccc(O)cc2)c(O)n1Cc1ccccc1", "Potency": "inconclusive [inhibitor, single point]"},
      {"smiles": "COc1ccc(C(=O)N2CCC3(CC2)OCCO3)cc1", "Potency": "inconclusive [inhibitor, full curve, poor fit]"}
    ]}
  ]
}
